# Assay results published in PubChem BioAssay AID485364 (National Center for Advancing Translational Sciences (NCATS), 2010).
# Hit rate of the full screen: of about 360,000 compounds, about 11,000 (3.1%) were called active. Inconclusive results, whose numbers are uncertain, are shown with a selection of clear calls. Calls come from the whole dose curve; as a rule, active = well fitted inhibition curve with a large enough effect; inconclusive = small, poorly fitted or top-dose-only effect; inactive = no such curve, though single readings can be large or run the other way. Potencies of inconclusive entries are left out as doubtful fits.
# Target: Schistosoma mansoni thioredoxin glutathione reductase (TGR) (UniProt Q962Y6)
# Assay: qHTS Assay for the Inhibitors of Schistosoma Mansoni Peroxiredoxins; note: nearly all actives have a fitted effect of over 60% in size
# Details: purified TGR, DTNB reduction, TNB absorbance 405 nm; activity change, negative = inhibition: at 114 µM (top of the series) unless noted
# In short: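 TGR 20 nM + NADPH 100 uM (dispensed conc.), cpd preinc 15 min RT; start with NADPH (500 uM addition) then DTNB (15 mM addition). Kinetic TNB absorbance, 405 nm filter. Four-parameter Hill fit across titration.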
# % is set by controls: 0 for no effect and ±100 for the full control effect; potency is the fitted concentration of half-maximal effect; tags give direction and shape of the fitted curve.
SMILES,"activity change, negative = inhibition",Potency
CN(Cc1ccc(N(C)C)cc1)C(=O)c1cc2ccccc2o1,inactive: -12.1%,
Cc1ccc(NC2=C/C(=N/S(=O)(=O)c3cccs3)c3ccccc3C2=O)cc1C,inactive: -3.4%,
COc1ccc(N2C(=O)C(CC(N)=O)N(NC(=O)CCc3ccccc3)C2=O)cc1 (centres undefined),inactive: 5.19%,
Cc1cc(C=C2C(=O)N(C)C(=S)N(C)C2=O)c(C)n1C1CCCCC1,,"inconclusive [inhibitor, full curve]"
O=C(NCC(=O)N(c1ccccc1)C(C(=O)NC1CCCC1)c1cccnc1)c1cccs1 (centres undefined),,"inconclusive [inhibitor, partial curve, poor fit]"
COc1ccc(OC)c(C2=NO[C@@H]3C(=O)N(c4cc(Cl)ccc4OC)C(=O)[C@H]23)c1,,"inconclusive [inhibitor, partial curve]"
CCCN(N=Nc1cccc([N+](=O)[O-])c1)c1cccc([N+](=O)[O-])c1,,active: 50.1 µM
O=C1C2ON(c3ccc(Cl)cc3)C(c3ccco3)C2C(=O)N1c1ccccc1 (centres undefined),,"inconclusive [inhibitor, partial curve]"
Cc1nnc(SCC(=O)N2CCN(C(=O)c3ccco3)CC2)n1-c1ccccc1,,"inconclusive [inhibitor, partial curve]"
CN(C[C@H](Cc1ccccc1)N(C[C@H](Cc1cccc2ccccc12)N(CCc1ccccc1)N=O)N=O)N=O,,active: 35.5 µM
CCOc1cc(/C=C2/N=C(c3ccc(C(C)(C)C)cc3)OC2=O)cc(Cl)c1OS(C)(=O)=O,,"inconclusive [inhibitor, partial curve]"
CC(=O)c1ccc(Nc2cc(C)nc3c(C)cc(C)cc23)cc1,inactive: -10.7%,
COc1ccccc1C(=O)c1c(C)c(CCC#N)n2ccccc12,inactive: -24.4%,
Cc1[nH]nc2c1C(C(C)c1ccccc1)C(C#N)=C(N)O2 (centres undefined),,"inconclusive [inhibitor, single point]"
COc1cc(OC)cc(N2C(=O)N(CC(=O)c3ccc(F)cc3)c3ccccc3S2(=O)=O)c1,inactive: 0.602%,
O=C(O)C1=C[C@@H](c2ccc(F)cc2)C[C@@H](OCCCCO)O1,,"inconclusive [inhibitor, partial curve]"
COC(=O)c1cc(O)cc(OC)c1C(=O)c1c(O)cc(C)cc1O,inactive: -30.1%,
CCOC(=O)c1c(NC(=O)Cn2nc(C(F)(F)F)cc2C)sc2c1CCC2,,"inconclusive [inhibitor, full curve]"
COc1ccccc1-n1c(O)c(C=NCc2ccc3c(c2)OCO3)c(=O)[nH]c1=O,,"inconclusive [inhibitor, partial curve]"
Cc1ccccc1CSCc1ccc(C(=O)NCCCN2CCOCC2)o1,,"inconclusive [inhibitor, full curve, poor fit]"
CCC(C)(C)n1nnnc1C(c1cc2cc(C)ccc2[nH]c1=O)N1CCCc2ccccc21 (centres undefined),,"inconclusive [inhibitor, partial curve]"
COc1ccc(CCC(=O)OCC(=O)NCc2ccccc2)cc1,,"inconclusive [inhibitor, single point]"

SMILES,"activity change, negative = inhibition",Potency
O=C(/C=C/c1ccccc1F)c1cccc([N+](=O)[O-])c1,,"inconclusive [inhibitor, full curve]"
CCCc1cc(C(=O)NNC(=S)NCc2ccccc2)cs1,inactive: 13.6%,
Cc1c(NC(=S)/C=C2\N(C)c3ccccc3C2(C)C)c(=O)n(-c2ccccc2)n1C,,"inconclusive [inhibitor, full curve, poor fit]"
CC1(C)N([O-])C2=C(c3ccccc3C2=O)[N+](=O)C1(C)C,inactive: -18.5%,
COc1ccc(-c2noc(-c3ccc(N4CCN(C)CC4)c([N+](=O)[O-])c3)n2)cc1OC,inactive: -8.25%,
CCOCN(C(=O)CCl)c1c(C)cccc1CC,,"inconclusive [inhibitor, partial curve]"
CCOc1[nH]c(/N=C/c2ccco2)c(C#N)c1C#N,,"inconclusive [inhibitor, partial curve]"
COc1ccc(CCC(=O)NCc2ccco2)cc1,,active: 56.2 µM
Cc1ccc(C2CC(=O)Nc3cc4c(cc32)OCCO4)cc1 (centres undefined),inactive: -8.54%,
COC(=O)c1cccc(Cn2c(Cl)c(/C=N/NC(=O)c3ccco3)sc2=O)c1,,active: 35.5 µM
CC1Cc2ccccc2N1C(=O)COc1cccc(-n2cnnn2)c1 (centres undefined),,"inconclusive [inhibitor, partial curve]"
Cc1ccc(S(=O)(=O)Cc2ccc(C(=O)N3CCc4ccccc4C3)o2)cc1,,active: 39.8 µM
Cn1cc(CC(=O)NCCN2CCOCC2)c2ccccc21,,"inconclusive [inhibitor, single point]"
Cc1ccc(CN2CCN(Cc3cc(=O)c4ccccc4[nH]3)CC2CCO)o1 (centres undefined),,"inconclusive [inhibitor, partial curve]"
COC(=O)c1ccccc1NC(=O)CN1CCc2ccccc2C1,,"inconclusive [inhibitor, partial curve]"
C#CCOCCOCCOCCNc1nc(N2CCN(C(=O)Cn3cc(CCCN=C(N)N)nn3)CC2)nc(N2CCN(C(=O)[C@H](C)n3cc(CCCN=C(N)N)nn3)CC2)n1,inactive: -19%,
COc1ccc(N2C(=O)CC2(/C=C/c2ccccc2OC)C(=O)NC2CCCC2)cc1 (centres undefined),inactive: -0.808%,
COC(=O)[C@@]1(Cc2ccc(F)cc2)[C@H]2c3cc(C(=O)N(C)C)n(Cc4ccccc4)c3C[C@H]2CN1C(=O)c1ccccc1,inactive: -24.3%,
Cc1nc2ccccn2c1/C(O)=C1\C(=O)C(=O)N(CCN2CCOCC2)C1c1cccs1 (centres undefined),,"inconclusive [inhibitor, partial curve]"
CN(C)C(=O)CNC(=O)C1CCCCC1,,"inconclusive [inhibitor, full curve]"
COc1cccc(C2C(C#N)=C(N)Oc3cc(C)n(Cc4ccco4)c(=O)c32)c1 (centres undefined),,"inconclusive [inhibitor, partial curve]"
COC(=O)c1ccc(NC(=S)N2CCCC2)cc1,,"inconclusive [inhibitor, single point]"
